# ± gives the standard deviation of the averaged measurements. This is one part of the list.
# System: PfAP2-I AP2 domain 3 (GST-tagged)
# Test: gcPBM binding intensity (ln(normalized median fluorescence intensity)); higher = stronger DNA binding
# Summary of the method: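 Binding intensity is defined as the maximum Masliner-normalised natural-log median intensity across replicate spots for either probe orientation. It was measured on an Agilent 4 × 180k array of primer-extended double-stranded 36-bp intergenic genomic probes and negative controls, to which GST-tagged P. falciparum DNA-binding domains made in E. coli were applied for 1 h in 1× PBS with 1% milk, 0.2 mg/ml BSA, 0.5% salmon testes DNA and 0.03% Triton X-100. Detection was by Alexa488 anti-GST antibody and scanning at 488 nm.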
row,Sequence,gcPBM binding intensity (ln)
1,TAAAGAGTTACCATTTGTACTTACGCACACATAAAA [XGTACX_site3145],8.37 ± 0.35
2,TATATTTGAAATATATGTACTTATAATACAGTTTAA [XGTACX_site8039],7.6 ± 0.38
3,TTCCTTCAAAATTTAAGTAATAAGATAAAAATATAA [CACACA_negctrl_site1696],7.54 ± 0.61
4,CACAGATAAATTAACACACACACACGGATATTTATA [CACACA_site7788],8.03 ± 0.26
5,ATGTATACAAATATATGTACGTATGTTCTCTTCTTT [XGTACX_site7865],7.81 ± 0.59
6,GGTAATAAACAATGAAGTACGTAAAGGTAAAATATT [XGTACX_site2647],8.46 ± 0.77
7,TTATTAGGTATATATGCACACAATACCCAAAACAAC [CACACA_site4221],9.595 ± 0.021
8,TATTTTCAAAAATATACACACACATAAATATATGTA [CACACA_site8160],7.54 ± 0.38
9,ATTTAATTTTCATGATGTACTATAGTTTAATGCACA [XGTACX_site1624],11.6 ± 1.1
10,TAATAATCAAACTATACACACATAAATAGATATATA [CACACA_site6220],7.53 ± 0.52
11,TGTAAATATAAATGTAATAAATATGTAAAAATAAAT [XGTACX_negctrl_site171],7.74 ± 0.45
12,TTATATGTATTTCTTTGTACACATTTTTATATATAT [XGTACX_site1462],8.21 ± 0.3
13,TATCATTTTTTTAAAACACACATAATAATATAAATA [CACACA_site2845],7.82 ± 0.31
14,TAAATTTTATAAATCTGTACATATGAGCAAGAACAT [XGTACX_site7400],8.43 ± 0.3
15,ATTATGCACCAACACACACACACACCCCTAAAAAAT [CACACA_site2568],11.4 ± 0.79
16,CACTTCAAAAAAATATGTACACATATATATATATAT [XGTACX_site3075],9.47 ± 0.5
17,TTATTTATTTTTTCATGTACTTAAATATATTAATGT [XGTACX_site5804],7.92 ± 0.54
18,ATCTATATTTTTATAACACACAATGATGTACATTAC [CACACA_site6633],8.11 ± 0.7
19,TAGAATAATCTATAAACACACAAACCCAACAAAAGA [CACACA_site6132],8.39 ± 0.38

row,Sequence,gcPBM binding intensity (ln)
1,TGAAAATATTTTATATGTACATATATTATCAATACA [XGTACX_site92],7.79 ± 0.28
2,AATATATAATTAATTGCACACCTTGTCACGCCAAAA [CACACA_site1174],9.58 ± 0.11
3,TATTAATACAGACACACACACACACTAATTAAAATA [CACACA_site7967],8.1 ± 0.29
4,ATTTACCCTTGCCATGCACACTTTTTTATAGAAAAT [CACACA_site5857],8.95 ± 0.44
5,GAATGAATACGTTTTACACACTTGAATATAATTTCA [CACACA_site989],7.78 ± 0.64
6,ATATATAAATTTAATACACACCCAAAAAAAAAAAAA [CACACA_site7719],8.21 ± 0.6
7,AAAATTATAAAATGGGCACACATGAAGATTGTAGTA [CACACA_site2226],7.87 ± 0.68
8,TAAATATATAAACACACACACATTAATACAGATATT [CACACA_site5851],7.72 ± 0.54
9,TATATATTTTTATGCACACACAAAGAAAATTTTCCT [CACACA_site2863],10.3 ± 0.47
10,AAAAAAAATTAAAATAAAATATAAATATAAAATATA [GTGCAC_negctrl_site714],7.26 ± 0.24
11,AAAGTATAACGGATACCATTTATGTGATTATTTTGT [XGTACX_negctrl_site188],7.43 ± 0.69
12,AAATATATATAAGCGTGTACACATTCTGAGTGTTGT [XGTACX_site1088],8.07 ± 0.57
13,TATCGTTTTATTCGGTTGCACCAAAAAAATAAAATA [GTGCAC_site9408],9.33 ± 0.2
14,ATAATAAAAATAAAATGTACATACATAAATATATAT [XGTACX_site6228],7.87 ± 0.68
15,AGCTATAATAAATATACACACATATATAAATATGTA [CACACA_site6583],7.38 ± 0.62
16,ATATATATATAATAAGTGCAAAAATAATGACCTATA,9.845 ± 0.007
17,TACCAAAAGAAACACACACACAAAATATATAAATAT [CACACA_site1869],7.7 ± 0.45
18,TCCCATATATATATATATATATATATATATAATAAT [TGCATGCA_negctrl_site41],8.53 ± 0.42
19,ATACTTTTAATATGCACATGCAAATATGAAATATCG [TGCATGCA_site603],9.22 ± 0.39

row,Sequence,gcPBM binding intensity (ln)
1,TTTGGCTAGTCAAGTTGTACAAAAAAAAAAAAAAAA [XGTACX_site8382],8.03 ± 0.54
2,AATTTATATTAAAATTGTACATTTCTTCTATAATAC [XGTACX_site8639],7.74 ± 0.66
3,AATATATTTAATGAGTGTACATTATTTATTATTATT [XGTACX_site6889],7.7 ± 0.49
4,AAATAAAAAAAATAAAAGCAATCATAATAAAAATCT [CACACA_negctrl_site161],7.62 ± 0.68
5,TGTATGTATTTGTGTAGTACGCATAAGTAATAAAAC [XGTACX_site6704],8.55 ± 0.4
6,CCTATATAATATATTTGTACTTAATAATTAAAGTGT [XGTACX_site5151],7.95 ± 0.25
7,TATATATATATATATTGTACATATGTAACCTTTTAA [XGTACX_site3914],9.38 ± 0.4
8,ATAAGATTAAACATTGCACACAGAAATATATTTTCT [CACACA_site8743],8.57 ± 0.44
9,TTTTTTAGATTACATAAATATAAATATAAATATATA [GTGCAC_negctrl_site459],7.26 ± 0.36
10,TCAACTATCAATATAGTGCATTTTTTTTGGAAAACC [GTGCAC_site9927],9.36 ± 0.071
11,TATCAAAATTAGTATACACACAAAATTAATCAAATA [CACACA_site7117],7.45 ± 0.51
12,CATTTTGTTTTAAAGTGTACATTATGTAATATAAAA [XGTACX_site647],7.84 ± 0.43
13,ATTTATATTACCCTTGCATGTAGGTGCAATTTTTTT [TGCATGCA_site757],10.64 ± 0.085
14,TTTTTATAGGTAAAAACACACGCTAAAAATAATTAA [CACACA_site3731],7.67 ± 0.69
15,AGGTACTTTTTTAAAACACACATATAATAAATACAC [CACACA_site4730],8.59 ± 0.16
16,AATAAATATATATTCACACACAAACATATATATATA [CACACA_site4023],9.22 ± 0.13
17,TTTATAATTTATATCACACACATATATATATAGTAA [CACACA_site8],7.67 ± 0.44
18,AAATAAATAAATAAATAAACAAATATGTATAAATGG [XGTACX_negctrl_site153],7.81 ± 0.45
